Assay results: the supplement of paper PMC8728848
Some of the results follow.

How the values were obtained:
Assay in all cases: glycan array binding signal (z-score within array); higher = stronger binding
Conditions in all cases: glycan notation: IUPAC condensed, linker removed
[1] = biological target: Neu5Ac(a2-6)Gal(b1-4)GlcNAc(b1-3)Gal(b1-4)[Fuc(a1-3)]GlcNAc(b1-3)Gal(b1-4)[Fuc(a1-3)]GlcNAc
Outline: (§1)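 Glycan array data came from 3228 arrays in the Consortium for Functional Glycomics database, and only arrays with an available protein sequence were kept. Glycan names were put into IUPAC-condensed notation, and columns mapping to the same glycan were averaged. The binding signal is a within-array Z-score, averaged across arrays of one protein sequence run at different concentrations or buffers and across linkers. A negative Z-score can be read as non-binding.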

[2] = biological target: Neu5Ac(a2-6)Gal(b1-4)GlcNAc(b1-3)GalNAc
Outline: as §1

[3] = biological target: Neu5Ac(a2-6)Gal(b1-4)GlcNAc(b1-3)[Neu5Ac(a2-6)Gal(b1-4)GlcNAc(b1-6)]GalNAc
Outline: as §1

[4] = biological target: Neu5Ac(a2-6)Gal(b1-4)GlcNAc(b1-6)GalNAc
Outline: as §1

[5] = biological target: Neu5Ac(a2-6)Gal(b1-4)GlcNAc(b1-6)[Gal(b1-3)GlcNAc(b1-3)]Gal(b1-4)Glc
Outline: as §1

[6] = biological target: Neu5Ac(a2-6)Gal(b1-4)GlcNAc(b1-6)[Gal(b1-3)]GalNAc
Outline: as §1

[7] = biological target: Neu5Ac(a2-6)Gal(b1-4)GlcNAc6S
Outline: as §1

[8] = biological target: Neu5Ac(a2-6)GalNAc
Outline: as §1

[9] = biological target: Neu5Ac(a2-6)GalNAc(b1-4)GlcNAc
Outline: as §1

[10] = biological target: Neu5Ac(a2-6)GalNAc(b1-4)GlcNAc6S
Outline: as §1

[11] = biological target: Neu5Ac(a2-6)GlcNAc(b1-4)GlcNAc
Outline: as §1

[12] = biological target: Neu5Ac(a2-6)GlcNAc(b1-4)GlcNAc(b1-4)GlcNAc
Outline: as §1

[13] = biological target: Neu5Ac(a2-8)Neu5Ac
Outline: as §1

[14] = biological target: Neu5Ac(a2-8)Neu5Ac(a2-3)Gal(b1-3)GalNAc(b1-4)[Neu5Ac(a2-3)]Gal(b1-4)Glc
Outline: as §1

[15] = biological target: Neu5Ac(a2-8)Neu5Ac(a2-3)Gal(b1-3)GalNAc(b1-4)[Neu5Ac(a2-8)Neu5Ac(a2-3)]Gal(b1-4)Glc
Outline: as §1

[16] = biological target: Neu5Ac(a2-8)Neu5Ac(a2-3)Gal(b1-4)Glc
Outline: as §1

[17] = biological target: Neu5Ac(a2-8)Neu5Ac(a2-3)Gal(b1-4)GlcNAc
Outline: as §1

[18] = biological target: Neu5Ac(a2-8)Neu5Ac(a2-3)[Gal(b1-3)GalNAc(b1-4)]Gal(b1-4)Glc
Outline: as §1

[19] = biological target: Neu5Ac(a2-8)Neu5Ac(a2-3)[GalNAc(b1-4)]Gal(b1-4)Glc
Outline: as §1

[20] = biological target: Neu5Ac(a2-8)Neu5Ac(a2-8)Neu5Ac
Outline: as §1

[21] = biological target: Neu5Ac(a2-8)Neu5Ac(a2-8)Neu5Ac(a2-3)Gal(b1-4)Glc
Outline: as §1

[22] = biological target: Neu5Ac(a2-8)Neu5Ac(a2-8)Neu5Ac(a2-3)[Gal(b1-3)GalNAc(b1-4)]Gal(b1-4)Glc
Outline: as §1

[23] = biological target: Neu5Ac(a2-8)Neu5Ac(a2-8)Neu5Ac(a2-3)[GalNAc(b1-4)]Gal(b1-4)Glc
Outline: as §1

[24] = biological target: Neu5Ac(a2-8)Neu5Ac(a2-8)Neu5Ac(a2-8)Neu5Ac(a2-3)[GalNAc(b1-4)]Gal(b1-4)Glc
Outline: as §1

[25] = biological target: Neu5Ac(a2-8)Neu5Gc(a2-3)Gal(b1-4)GlcNAc
Outline: as §1

[26] = biological target: Neu5Ac(b1-6)GalNAc
Outline: as §1

[27] = biological target: Neu5Ac(b2-6)Gal(b1-4)GlcNAc
Outline: as §1

[28] = biological target: Neu5Ac(b2-6)GalNAc
Outline: as §1

[29] = biological target: Neu5Ac9Ac(a2-3)Gal(b1-3)GlcNAc
Outline: as §1

[30] = biological target: Neu5Ac9Ac(a2-3)Gal(b1-4)GlcNAc
Outline: as §1

[31] = biological target: Neu5Ac9Ac(a2-6)Gal(b1-4)GlcNAc
Outline: as §1

[32] = biological target: Neu5Gc(a2-3)Gal(b1-3)GlcNAc
Outline: as §1

[33] = biological target: Neu5Gc(a2-3)Gal(b1-3)[Fuc(a1-4)]GlcNAc
Outline: as §1

[34] = biological target: Neu5Gc(a2-3)Gal(b1-4)Glc
Outline: as §1

[35] = biological target: Neu5Gc(a2-3)Gal(b1-4)GlcNAc
Outline: as §1

[36] = biological target: Neu5Gc(a2-3)Gal(b1-4)GlcNAc(b1-3)Gal(b1-4)GlcNAc(b1-2)Man(a1-3)[Neu5Gc(a2-3)Gal(b1-4)GlcNAc(b1-3)Gal(b1-4)GlcNAc(b1-2)Man(a1-6)]Man(b1-4)GlcNAc(b1-4)GlcNAc
Outline: as §1

[37] = biological target: Neu5Gc(a2-3)Gal(b1-4)[Fuc(a1-3)]GlcNAc
Outline: as §1

[38] = biological target: Neu5Gc(a2-6)Gal(b1-4)GlcNAc
Outline: as §1

[39] = biological target: Neu5Gc(a2-6)GalNAc
Outline: as §1

[40] = biological target: Neu5Gc(a2-8)Neu5Ac(a2-3)Gal(b1-4)GlcNAc
Outline: as §1

[41] = biological target: Neu5Gc(a2-8)Neu5Gc(a2-3)Gal(b1-4)GlcNAc
Outline: as §1

[42] = biological target: Neu5Gc(a2-8)Neu5Gc(a2-3)Gal(b1-4)GlcNAc(b1-3)Gal(b1-4)GlcNAc
Outline: as §1

[43] = biological target: Neu5Gc(a2-8)Neu5Gc(a2-6)Gal(b1-4)GlcNAc
Outline: as §1

[44] = biological target: Neu5Gc(b2-6)Gal(b1-4)GlcNAc
Outline: as §1

B1: NPA (Narcissus pseudonarcissus), C0HM45 (protein)
chain: DNILYSGETLSPGEFLNNGRYVFIMQEDCNLVLYDVDKPIWATNTGGLDRRCHLSMQSDGNLVVYSPRNNPIWASNTGGENGNYVCVLQKDRNVVIYGTARWATGTNIH
For B1, the “glycan array binding signal (z-score)” value [1] was -0.11, the “glycan array binding signal (z-score)” value [2] was -0.124 and the “glycan array binding signal (z-score)” value [3] was -0.15. For the same binder, the “glycan array binding signal (z-score)” value [4] was -0.137, the “glycan array binding signal (z-score)” value [5] was -0.151 and the “glycan array binding signal (z-score)” value [6] was -0.129. For the same binder, the “glycan array binding signal (z-score)” value [7] was -0.14, the “glycan array binding signal (z-score)” value [8] was -0.163 and the “glycan array binding signal (z-score)” value [9] was -0.149. The “glycan array binding signal (z-score)” value [10] was -0.141, the “glycan array binding signal (z-score)” value [11] was -0.143 and the “glycan array binding signal (z-score)” value [12] was -0.129. For the same binder, the “glycan array binding signal (z-score)” value [13] was -0.151, the “glycan array binding signal (z-score)” value [14] was -0.144 and the “glycan array binding signal (z-score)” value [15] was -0.14. For the same binder, the “glycan array binding signal (z-score)” value [16] was -0.16, the “glycan array binding signal (z-score)” value [17] was -0.155 and the “glycan array binding signal (z-score)” value [18] was -0.149. For the same binder, the “glycan array binding signal (z-score)” value [19] was -0.15, the “glycan array binding signal (z-score)” value [20] was -0.156 and the “glycan array binding signal (z-score)” value [21] was -0.151. For the same binder, the “glycan array binding signal (z-score)” value [22] was -0.128, the “glycan array binding signal (z-score)” value [23] was -0.139 and the “glycan array binding signal (z-score)” value [24] was -0.141. The “glycan array binding signal (z-score)” value [25] was -0.15, the “glycan array binding signal (z-score)” value [26] was -0.207 and the “glycan array binding signal (z-score)” value [27] was -0.154. For the same binder, the “glycan array binding signal (z-score)” value [28] was -0.149, the “glycan array binding signal (z-score)” value [29] was -0.145 and the “glycan array binding signal (z-score)” value [30] was -0.129. For the same binder, the “glycan array binding signal (z-score)” value [31] was -0.156, the “glycan array binding signal (z-score)” value [32] was -0.157 and the “glycan array binding signal (z-score)” value [33] was -0.149. The “glycan array binding signal (z-score)” value [34] was -0.148, the “glycan array binding signal (z-score)” value [35] was -0.151 and the “glycan array binding signal (z-score)” value [36] was -0.13. For the same binder, the “glycan array binding signal (z-score)” value [37] was -0.155, the “glycan array binding signal (z-score)” value [38] was -0.145 and the “glycan array binding signal (z-score)” value [39] was -0.147. For the same binder, the “glycan array binding signal (z-score)” value [40] was -0.145, the “glycan array binding signal (z-score)” value [41] was -0.149 and the “glycan array binding signal (z-score)” value [42] was -0.146. The “glycan array binding signal (z-score)” value [43] was -0.14 and the “glycan array binding signal (z-score)” value [44] was -0.147.
